# Values quoted from earlier work as cited in publication PMC11006913.
# This is one part of the list.
# Target: HOXD13 I297V (Homo sapiens) (UniProt P35453)
# Details: PBM; conditions not shown; double strand, one strand shown; scale: upbm affinity estimate (log intensity, higher = more binding, comparable within an allelic series)
# UniProt P35453, sequence (P35453 263-343 I297V): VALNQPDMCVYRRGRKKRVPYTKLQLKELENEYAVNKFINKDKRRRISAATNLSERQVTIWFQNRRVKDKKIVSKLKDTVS
row,Sequence,binding signal
1,AGTAGTTA [8-mer AGTAGTTA],11.3
2,AATACTAA [8-mer AATACTAA],10.9
3,GATGGTTA [8-mer GATGGTTA],11
4,GTCACTAA [8-mer GTCACTAA],11
5,ATGTATCG [8-mer ATGTATCG],10.8
6,CTACTTTA [8-mer CTACTTTA],11
7,AATAACCC [8-mer AATAACCC],11.4
8,CCCTTTTA [8-mer CCCTTTTA],11
9,ATAATAAA [8-mer ATAATAAA],12.4
10,AGGTAGTA [8-mer AGGTAGTA],10.9
11,GGTAGTAA [8-mer GGTAGTAA],11.1
12,ATAGTCAA [8-mer ATAGTCAA],10.9
13,ATGTCTAA [8-mer ATGTCTAA],10.6
14,AATTATAT [8-mer AATTATAT],12.3
15,ATATAAAC [8-mer ATATAAAC],12.2
16,AGAACATA [8-mer AGAACATA],10.8
17,ACTAACAA [8-mer ACTAACAA],11.1
18,AATTTATA [8-mer AATTTATA],12.4
19,TCTATTAA [8-mer TCTATTAA],12.3
20,ATAAAACA [8-mer ATAAAACA],12.3
21,ATATTGGA [8-mer ATATTGGA],11.2
22,GTAAAACA [8-mer GTAAAACA],11.5
23,CATAAAAA [8-mer CATAAAAA],12.3
24,AGTTTACG [8-mer AGTTTACG],11.7
25,ACCTTTTA [8-mer ACCTTTTA],11.2
26,ATCGTAAC [8-mer ATCGTAAC],11.4
27,CACGTAAA [8-mer CACGTAAA],11.8
28,CTTATAAA [8-mer CTTATAAA],12.3
